Laboratory results from publication PMC11995724, “Antibiotic target discovery by integrated phenotypic and activity-based profiling of electrophilic fragments” (Cell chemical biology, 2025).
In all, about 3,200 compounds went through this assay and about 75 (2%) showed an effect of 50% or more. Some of the results follow.

system: T1, S. aureus MSSA476; set-up: species or system S. aureus MSSA476 (TSB) or V. cholerae SAD30 (LB); 384-well bacterial growth screen at 25 uM, OD600 relative to DMSO control; conditions: relative growth, OD600, TSB; 25 µM; inhibitor
T1 construct: MSSA476

SMILES | % of control remaining [%]
CC(Cl)C(=O)N(Cc1nnc(-c2ccccc2Cl)o1)C1CC1 (stereo not drawn) [5-B17, 2-chloro-N-{[5-(2-chlorophenyl)-1,3,4-oxadiazol-2-yl]methyl}-N-cyclopropylpropanamide] | 92.5319
O=C(CCl)N1CC(NC(=O)C(F)(F)F)CCC1C(F)(F)F (stereo not drawn) [5-O18, N-[1-(2-chloroacetyl)-6-(trifluoromethyl)piperidin-3-yl]-2,2,2-trifluoroacetamide] | 94.7177
COc1cc(CNC(=O)C(C#N)=Cc2ccco2)c2ccccc2n1 [9-I05, 2-cyano-3-(furan-2-yl)-N-[(2-methoxyquinolin-4-yl)methyl]prop-2-enamide] | 79.7004
Cn1cc(C(=O)CCl)cc1C(N)=O [10-J06, 4-(2-chloroacetyl)-1-methyl-1H-pyrrole-2-carboxamide] | 112.188
C=CC(=O)N1CCC(C(=O)N[C@@H](C)C(=O)NC)(c2ccccc2)CC1 [2-B16, (2S)-N-methyl-2-{[4-phenyl-1-(prop-2-enoyl)piperidin-4-yl]formamido}propanamide] | 105.831
CC(Cl)C(=O)NC(C)(C(N)=O)c1cccc(Cl)c1 (stereo not drawn) [5-J17, 2-(3-chlorophenyl)-2-(2-chloropropanamido)propanamide] | 120.583
O=C(CCl)Nc1ccc(S(=O)(=O)Nc2nccs2)cc1 [4-B14, 2-chloro-N-{4-[(1,3-thiazol-2-yl)sulfamoyl]phenyl}acetamide] | 131.872
C=CC(=O)NCC1CCN(C2CC2)CC1 [1-A07, N-[(1-cyclopropylpiperidin-4-yl)methyl]prop-2-enamide] | 104.44
C=CC(=O)NC1CCN(S(N)(=O)=O)CC1 [1-K18, N-(1-sulfamoylpiperidin-4-yl)prop-2-enamide] | 82.989
CC(C)c1ccc(C(NC(=O)CCl)C(C)C)cc1 (stereo not drawn) [4-O14, 2-chloro-N-{2-methyl-1-[4-(propan-2-yl)phenyl]propyl}acetamide] | 88.0419
COc1ccc(C=C(C#N)C(N)=O)c(Cl)c1OC [9-H14, 3-(2-chloro-3,4-dimethoxyphenyl)-2-cyanoprop-2-enamide] | 98.2772
N#CC(=Cc1ccco1)C(=O)NCc1nc(-c2ccncc2)cs1 [9-B20, 2-cyano-3-(furan-2-yl)-N-{[4-(pyridin-4-yl)-1,3-thiazol-2-yl]methyl}prop-2-enamide] | 93.4831
